# The list shows a part of the results.
# B1: CGL3 (Coprinopsis cinerea) (protein)
# chain: MGHHHHHHHHSGFHILRLESTVDLSEPLKDNGIIVFQSDKLDLEPSPNLGPTGIDNTNVNLINAKGDVLLHIGIRRRENAFVFNSIPYGESRGPEERIPLEGTFGDRRDPSITVFDHPDRYQIMIDYKTVYYYKKRLEGRCEKVSYKINEGQTPPFSDVLGVTVLYFANVMPRAN
# Tests used:
# Assay in all cases: glycan array binding signal (z-score within array); higher = stronger binding
# Settings in all cases: glycan notation: IUPAC condensed, linker removed
# [1] = biological target: Neu5Ac(a2-3)Gal(b1-4)GlcNAc(b1-3)Gal(b1-4)GlcNAc
# In short: (§1)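 From the Consortium for Functional Glycomics database, 3228 arrays were curated, keeping only those whose protein sequence was available. Binding is given as a within-array Z-score averaged across arrays sharing a protein sequence and across linkers. Negative Z-scores can be read as non-binding.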
# [2] = biological target: Neu5Ac(a2-3)Gal(b1-4)GlcNAc(b1-3)Gal(b1-4)GlcNAc(b1-3)Gal(b1-4)GlcNAc
# In short: as §1
# [3] = biological target: Neu5Ac(a2-3)Gal(b1-4)GlcNAc6S
# In short: as §1
# [4] = biological target: Neu5Ac(a2-3)Gal(b1-4)[Fuc(a1-3)]GlcNAc
# In short: as §1
# [5] = biological target: Neu5Ac(a2-3)Gal(b1-4)[Fuc(a1-3)]GlcNAc(b1-3)Gal
# In short: as §1
# [6] = biological target: Neu5Ac(a2-3)Gal(b1-4)[Fuc(a1-3)]GlcNAc(b1-3)Gal(b1-4)GlcNAc
# In short: as §1
# [7] = biological target: Neu5Ac(a2-3)Gal(b1-4)[Fuc(a1-3)]GlcNAc(b1-3)Gal(b1-4)[Fuc(a1-3)]GlcNAc(b1-3)Gal(b1-4)[Fuc(a1-3)]GlcNAc
# In short: as §1
# [8] = biological target: Neu5Ac(a2-3)Gal(b1-4)[Fuc(a1-3)]GlcNAc6S
# In short: as §1
# [9] = biological target: Neu5Ac(a2-3)Gal6S(b1-4)GlcNAc
# In short: as §1
# Neu5Ac(a2-3)GalNAc = biological target: Neu5Ac(a2-3)GalNAc
# In short: as §1
# [10] = biological target: Neu5Ac(a2-3)[GalNAc(b1-4)]Gal(b1-4)Glc
# In short: as §1
# [11] = biological target: Neu5Ac(a2-3)[GalNAc(b1-4)]Gal(b1-4)GlcNAc
# In short: as §1
# [12] = biological target: Neu5Ac(a2-3)[Neu5Ac(a2-6)]GalNAc
# In short: as §1
# Neu5Ac(a2-6)Gal = biological target: Neu5Ac(a2-6)Gal
# In short: as §1
# Neu5Ac(a2-6)Gal(b1-4)Glc = biological target: Neu5Ac(a2-6)Gal(b1-4)Glc
# In short: as §1
# [13] = biological target: Neu5Ac(a2-6)Gal(b1-4)GlcNAc
# In short: as §1
# [14] = biological target: Neu5Ac(a2-6)Gal(b1-4)GlcNAc(b1-3)Gal(b1-4)GlcNAc
# In short: as §1
# [15] = biological target: Neu5Ac(a2-6)Gal(b1-4)GlcNAc(b1-3)Gal(b1-4)[Fuc(a1-3)]GlcNAc(b1-3)Gal(b1-4)[Fuc(a1-3)]GlcNAc
# In short: as §1
# [16] = biological target: Neu5Ac(a2-6)Gal(b1-4)GlcNAc6S
# In short: as §1
# Neu5Ac(a2-6)GalNAc = biological target: Neu5Ac(a2-6)GalNAc
# In short: as §1
# Neu5Ac(a2-8)Neu5Ac = biological target: Neu5Ac(a2-8)Neu5Ac
# In short: as §1
# [17] = biological target: Neu5Ac(a2-8)Neu5Ac(a2-3)Gal(b1-4)Glc
# In short: as §1
# [18] = biological target: Neu5Ac(a2-8)Neu5Ac(a2-3)[GalNAc(b1-4)]Gal(b1-4)Glc
# In short: as §1
# [19] = biological target: Neu5Ac(a2-8)Neu5Ac(a2-8)Neu5Ac
# In short: as §1
# [20] = biological target: Neu5Ac(a2-8)Neu5Ac(a2-8)Neu5Ac(a2-3)Gal(b1-4)Glc
# In short: as §1
# [21] = biological target: Neu5Ac(a2-8)Neu5Ac(a2-8)Neu5Ac(a2-3)[GalNAc(b1-4)]Gal(b1-4)Glc
# In short: as §1
# Neu5Ac(b1-6)GalNAc = biological target: Neu5Ac(b1-6)GalNAc
# In short: as §1
# [22] = biological target: Neu5Ac(b2-6)Gal(b1-4)GlcNAc
# In short: as §1
# [23] = biological target: Neu5Ac9Ac(a2-6)Gal(b1-4)GlcNAc
# In short: as §1
# [24] = biological target: Neu5Gc(a2-3)Gal(b1-3)GlcNAc
# In short: as §1
# [25] = biological target: Neu5Gc(a2-3)Gal(b1-3)[Fuc(a1-4)]GlcNAc
# In short: as §1
# Neu5Gc(a2-3)Gal(b1-4)Glc = biological target: Neu5Gc(a2-3)Gal(b1-4)Glc
# In short: as §1
# [26] = biological target: Neu5Gc(a2-3)Gal(b1-4)GlcNAc
# In short: as §1
# [27] = biological target: Neu5Gc(a2-3)Gal(b1-4)[Fuc(a1-3)]GlcNAc
# In short: as §1
# [28] = biological target: Neu5Gc(a2-6)Gal(b1-4)GlcNAc
# In short: as §1
# Neu5Gc(a2-6)GalNAc = biological target: Neu5Gc(a2-6)GalNAc
# In short: as §1
binder,measurement,setting,value
B1,glycan array binding signal (z-score),[1],-0.21
same,glycan array binding signal (z-score),[2],-0.223
same,glycan array binding signal (z-score),[3],-0.095
same,glycan array binding signal (z-score),[4],-0.215
same,glycan array binding signal (z-score),[5],-0.224
same,glycan array binding signal (z-score),[6],-0.194
same,glycan array binding signal (z-score),[7],-0.208
same,glycan array binding signal (z-score),[8],-0.221
same,glycan array binding signal (z-score),[9],-0.19
same,glycan array binding signal (z-score),Neu5Ac(a2-3)GalNAc,-0.195
same,glycan array binding signal (z-score),[10],-0.225
same,glycan array binding signal (z-score),[11],-0.222
same,glycan array binding signal (z-score),[12],-0.164
same,glycan array binding signal (z-score),Neu5Ac(a2-6)Gal,-0.204
same,glycan array binding signal (z-score),Neu5Ac(a2-6)Gal(b1-4)Glc,-0.211
same,glycan array binding signal (z-score),[13],-0.219
same,glycan array binding signal (z-score),[14],-0.21
same,glycan array binding signal (z-score),[15],-0.155
same,glycan array binding signal (z-score),[16],-0.208
same,glycan array binding signal (z-score),Neu5Ac(a2-6)GalNAc,-0.195
same,glycan array binding signal (z-score),Neu5Ac(a2-8)Neu5Ac,-0.211
same,glycan array binding signal (z-score),[17],-0.214
same,glycan array binding signal (z-score),[18],-0.128
same,glycan array binding signal (z-score),[19],-0.221
same,glycan array binding signal (z-score),[20],-0.219
same,glycan array binding signal (z-score),[21],-0.221
same,glycan array binding signal (z-score),Neu5Ac(b1-6)GalNAc,-0.205
same,glycan array binding signal (z-score),[22],-0.185
same,glycan array binding signal (z-score),[23],-0.205
same,glycan array binding signal (z-score),[24],-0.191
same,glycan array binding signal (z-score),[25],-0.225
same,glycan array binding signal (z-score),Neu5Gc(a2-3)Gal(b1-4)Glc,-0.189
same,glycan array binding signal (z-score),[26],-0.197
same,glycan array binding signal (z-score),[27],-0.215
same,glycan array binding signal (z-score),[28],-0.212
same,glycan array binding signal (z-score),Neu5Gc(a2-6)GalNAc,-0.197

# From the supplement of paper PMC8728848
